Measured values published in PubChem BioAssay AID1347165 (National Center for Advancing Translational Sciences (NCATS), 2019).
In all, about 220,000 compounds went through this assay and about 5,700 (2.6%) were called active. This list was built around the results that the source calls inconclusive (neither active nor inactive); the mix of calls is not that of the screen. Calls come from the whole dose curve; as a rule, active = well fitted inhibition curve with a large enough effect; inconclusive = small, poorly fitted or top-dose-only effect; inactive = no such curve, though single readings can be large or run the other way. Potencies of inconclusive entries are doubtful fits and often do not repeat.

Target: Lysine-specific demethylase 5B (Homo sapiens) (UniProt Q9UGL1)
UniProt Q9UGL1, sequence (Q9UGL1 whole entry, looked up): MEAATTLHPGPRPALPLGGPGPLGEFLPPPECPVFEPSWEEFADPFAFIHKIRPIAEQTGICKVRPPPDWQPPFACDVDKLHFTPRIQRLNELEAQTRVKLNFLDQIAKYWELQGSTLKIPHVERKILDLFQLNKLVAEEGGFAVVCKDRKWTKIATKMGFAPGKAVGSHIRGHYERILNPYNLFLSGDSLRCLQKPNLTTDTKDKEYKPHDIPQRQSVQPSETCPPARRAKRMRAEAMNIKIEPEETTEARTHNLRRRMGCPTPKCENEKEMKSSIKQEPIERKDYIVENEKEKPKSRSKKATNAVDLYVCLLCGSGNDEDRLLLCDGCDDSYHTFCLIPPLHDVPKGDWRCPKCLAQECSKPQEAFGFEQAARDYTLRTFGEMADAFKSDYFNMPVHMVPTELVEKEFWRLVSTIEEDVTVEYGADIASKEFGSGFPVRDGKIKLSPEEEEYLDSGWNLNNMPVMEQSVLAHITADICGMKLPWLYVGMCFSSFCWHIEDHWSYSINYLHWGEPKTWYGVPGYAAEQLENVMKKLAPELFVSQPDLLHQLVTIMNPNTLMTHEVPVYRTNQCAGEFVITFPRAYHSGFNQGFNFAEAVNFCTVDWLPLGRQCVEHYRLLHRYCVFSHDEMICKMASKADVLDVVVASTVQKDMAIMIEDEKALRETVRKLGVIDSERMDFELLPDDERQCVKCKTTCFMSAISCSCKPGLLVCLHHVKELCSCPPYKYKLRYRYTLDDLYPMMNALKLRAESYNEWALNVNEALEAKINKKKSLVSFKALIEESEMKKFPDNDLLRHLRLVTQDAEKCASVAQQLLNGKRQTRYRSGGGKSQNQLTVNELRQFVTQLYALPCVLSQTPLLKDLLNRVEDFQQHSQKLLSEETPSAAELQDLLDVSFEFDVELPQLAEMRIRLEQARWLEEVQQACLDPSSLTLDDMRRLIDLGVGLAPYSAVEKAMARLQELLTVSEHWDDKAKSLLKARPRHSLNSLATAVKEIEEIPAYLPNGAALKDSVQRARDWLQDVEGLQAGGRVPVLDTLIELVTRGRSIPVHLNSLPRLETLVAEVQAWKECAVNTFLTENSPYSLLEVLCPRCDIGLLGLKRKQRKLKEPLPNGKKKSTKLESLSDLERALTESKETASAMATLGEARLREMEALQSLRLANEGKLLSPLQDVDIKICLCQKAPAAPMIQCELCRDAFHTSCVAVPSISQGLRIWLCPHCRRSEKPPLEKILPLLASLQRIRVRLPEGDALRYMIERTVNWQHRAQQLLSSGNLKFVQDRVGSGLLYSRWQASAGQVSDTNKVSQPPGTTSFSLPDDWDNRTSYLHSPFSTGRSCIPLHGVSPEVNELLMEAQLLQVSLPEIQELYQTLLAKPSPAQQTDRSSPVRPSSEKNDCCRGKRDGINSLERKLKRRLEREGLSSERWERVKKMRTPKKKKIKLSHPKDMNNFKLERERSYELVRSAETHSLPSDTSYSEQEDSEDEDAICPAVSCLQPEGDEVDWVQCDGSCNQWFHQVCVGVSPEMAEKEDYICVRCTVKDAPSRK
Assay: Primary screen for KDM5B Histone Demethylases FDH-coupled qHTS; note: nearly all actives have a fitted effect of over 70% in size; for activity change, negative = inhibition: 0% is about no effect
Settings: FDH-coupled NADH fluorescence (FDH is formaldehyde dehydrogenase); activity change, negative = inhibition: at 57.7 µM (top of the series) unless noted
Method in brief: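 qHTS format, multiple compound concentrations. Buffer 50 mM HEPES pH 7.5/0.01% Tween-20; 200 nM KDM5BΔAP final; 10 min compound preincubation; substrate-mix levels 12.5 µM peptide, 25 µM α-KG, 0.25 mM NAD⁺; 30 min RT; ΔRFU.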
Potency is the fitted concentration of half-maximal effect; tags give direction and shape of the fitted curve.

Row | SMILES | activity change, negative = inhibition | Potency
1 | COc1ccc(C(=O)N(Cc2cc(OC)c(OC)c(OC)c2)CC2CCCO2)cc1 (stereo unspecified) | inconclusive: -36.6% [inhibitor] | 
2 | C(=C\c1ccccc1)/CNCC1CCCO1 (stereo unspecified) |  | inactive
3 | c1ccc2c(c1)CNC1(CCN(Cc3cccc4ccccc34)CC1)CO2 |  | inconclusive: 28.2 µM [inhibitor, single point]
4 | COc1ccc(-c2cc(-c3ccccc3)nc(SCC(=O)CC(=O)OC(C)C)c2C#N)cc1 |  | inconclusive: 31.6 µM [inhibitor, partial curve, poor fit]
5 | COc1ccc2[nH]c(C(=O)N/N=C/c3ccc(O)cc3O)cc2c1 |  | inconclusive: 39.8 µM [inhibitor, partial curve, poor fit]
6 | COc1cc2[nH]c3c(OC)ncnc3c2cc1OC |  | inconclusive: 35.5 µM [inhibitor, partial curve, poor fit]
7 | CCN(CCCNC(=O)c1cc2c(=O)n(CC)c3ccccc3c2s1)c1ccccc1 |  | inconclusive: 35.5 µM [inhibitor, single point]
8 | CN1CC(=O)N(c2ccccc2F)Cc2c(NC3CCNCC3)ncnc21 |  | inconclusive: 50.1 µM [inhibitor, partial curve, poor fit]
9 | CCOc1ccc(-c2nc(C#N)c(NCCCOC)o2)cc1 |  | inconclusive: 31.6 µM [inhibitor, partial curve, poor fit]
10 | CC(NC(=O)CCCn1c(=O)c2cccn2c2cccnc21)c1ccccc1 (stereo unspecified) |  | inconclusive: 20 µM [inhibitor, partial curve, poor fit]
11 | CCCN1CCC(N(C)C(=O)Nc2ccc(F)cc2)CC1 |  | inactive
12 | COc1ccc(CCC(=O)N2CCCN(C(=O)C3CC3)C(c3ccccc3)CC(=O)NCC2)cc1 (stereo unspecified) |  | inactive
13 | O=C(Cc1cccc(Cl)c1)N1CCC2(CC1)CN[S+](=O)([O-])c1cccnc1O2 |  | active: 79.4 µM
14 | Cc1nc(CN2Cc3nc(-c4cc5ccccc5o4)ccc3OCC2=O)cs1 |  | inconclusive: 35.5 µM [inhibitor, partial curve, poor fit]
15 | O=C(c1ccc(Cl)cc1)N1CCC([C@@H]2CNC[C@H]2CO)CC1 |  | inactive
16 | Cc1ccc(CN2CC[C@@H]3C(=O)NCCCCCCN(Cc4ccncc4)[C@@H]3C2)o1 |  | inconclusive: 14.1 µM [inhibitor, partial curve, poor fit]
17 | Cc1ccc(S(=O)(=O)N2CCN(Cc3coc(-c4cccs4)n3)CC2)cc1 |  | inconclusive: 39.8 µM [inhibitor, single point]
18 | O=S(=O)(Nc1nc2ccccc2nc1N1CCN(c2ncccn2)CC1)c1ccccc1 |  | inactive
19 | COCCOc1ccc2c(n1)CCN(C(=O)CCC1CCCC1)C2 |  | inactive
20 | COc1ccc(S(=O)(=O)[C@H]2CS(=O)(=O)C[C@@H]2NCc2ccccn2)cc1 |  | inactive
21 | CCn1cc(CN2CCCC23CCN(c2cc(C)nc4ccccc24)CC3)c(C)n1 |  | inconclusive: 12.6 µM [inhibitor, partial curve]
22 | CCCCC(C(=O)NC1CCCC1)N(C(=O)c1snc(C(N)=O)c1N)c1ccc(F)cc1 (stereo unspecified) |  | inconclusive: 31.6 µM [inhibitor, partial curve, poor fit]
23 | O=C(Cn1nc(-c2ccc(Cl)cc2)ccc1=O)NCc1ccccc1Cl |  | inconclusive: 28.2 µM [inhibitor, partial curve, poor fit]

Row | SMILES | activity change, negative = inhibition | Potency
24 | C[S+](=O)([O-])c1ccc(-c2cc3c(cn2)CN(CCc2ccccc2)CCN3)cc1 |  | active: 39.8 µM
25 | COc1cccc(C2C(C(=O)Nc3ccc(C)cc3C)=C(C)Nc3c(C(=O)Nc4cccc(C)c4)cnn32)c1OC (stereo unspecified) |  | inconclusive: 2.82 µM [inhibitor, partial curve, poor fit]
26 | COc1ccc(C(=O)N2CCN(Cc3ccc(=O)n(C)c3)CC2)cn1 |  | inactive
27 | CC(C)NC(=O)C(C)ONC(=O)c1cccc(C(F)(F)F)c1 (stereo unspecified) |  | inactive
28 | CCC(Sc1nncn2c1cc1occc12)C(=O)Nc1ccc(C)c(Cl)c1 (stereo unspecified) |  | inconclusive: 31.6 µM [inhibitor, partial curve, poor fit]
29 | N#Cc1cccc(/C=C/C(=O)NCCc2cccs2)c1 |  | inactive
30 | CNc1nccc(N2CCC(CC(=O)NCc3nc4ccccc4n3C)CC2)n1 |  | inconclusive: 14.1 µM [inhibitor, partial curve]
31 | Cc1ncoc1C(=O)N1CC[C@@H]2COCCN(Cc3ccncc3)[C@@H]2C1 |  | inconclusive: 28.2 µM [inhibitor, partial curve]
32 | COc1ccccc1/C=C/c1nc(C#N)c(N(C)C)o1 |  | inconclusive: 28.2 µM [inhibitor, partial curve, poor fit]
33 | CSCCC(NC(=O)c1ccccc1)C(=O)NNC(=O)c1csc(N2CCOCC2)n1 (stereo unspecified) |  | inconclusive: 28.2 µM [inhibitor, partial curve, poor fit]
34 | CCOc1ccc(NC(=O)CN2C(=O)NC3(CCOCC3)C2=O)cc1 |  | inactive
35 | Cc1ccc(-c2ccc3nnc(CNC(=O)CNC(=O)c4ccccc4)n3n2)cc1 |  | active: 31.6 µM
36 | CCOc1ccc(Nc2cc(C(=O)NCC(OC)OC)c3ccccc3n2)cc1 |  | inactive
37 | Cc1nc(CCC(=O)NCc2cc(Cl)cc3c(C)c(-c4ccccc4)[nH]c23)n[nH]1 |  | active: 25.1 µM
38 | COc1ccc2c(C)c(CCC(=O)Nc3ccc(F)cc3)c(=O)oc2c1 |  | inconclusive: 2 µM [inhibitor, full curve, poor fit]
39 | Cn1cc(-c2ccccc2F)c2nc(COc3ccccc3)cn2c1=O |  | inactive
40 | CNC(=O)NC(=O)C(C)N(C)CCCCc1ccccc1 (stereo unspecified) |  | inactive
41 | Cc1ccccc1NC(=O)c1nn(C)c2c1COc1ccccc1-2 |  | inactive
42 | CCOc1ccc(S(=O)(=O)[C@H]2CS(=O)(=O)C[C@@H]2NCc2ccco2)cc1 |  | inactive
43 | CCOC(=O)c1cnc2c(C)cc(C)cc2c1NCCN1CCOCC1 |  | inconclusive: 17.8 µM [inhibitor, partial curve, poor fit]
44 | c1ccc(CNCc2cccc3ccccc23)cc1 |  | inactive
45 | Cc1ccc(NC(=O)c2cc3n(n2)CC(c2ccc4c(c2)OCO4)OC3)cc1C (stereo unspecified) |  | active: 35.5 µM
46 | COc1ccc(-c2nnc(-c3ccc(OC)c(OC)c3)o2)cc1OC |  | inconclusive: 2.24 µM [inhibitor, full curve, poor fit]
